From the supplement of paper PMC4967469
Lines with a small IC50 respond at low doses; fits outside the tested doses are given as limits. For AUC the same curve is integrated over the 256-fold range of doses and scaled to a fraction; values near 1 show little effect. For some of these results: An inferred top dose was derived from the fitted curves, not read from the paper. For some of these results: An entry number marks a drug with two screens in the source, which often give different values.

Assays:
Assay in all cases: Viability of human cancer cell lines after 72 h of drug (GDSC screen)
[1] = compound: NC(=O)Nc1sc(-c2ccc(F)cc2)cc1C(N)=O [TPCA-1]; conditions: top dose 20 µM
Procedure: (§1)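 Human cancer cell lines in 384-well plates, medium with 10% serum, drug for 72 h over a 256-fold dose range (nine 2-fold or five 4-fold steps up to the top dose). Adherent lines were fixed and stained with the nucleic acid dye Syto60, suspension lines read with resazurin; signal relative to control wells, capped at 0 and 100%. One two-parameter sigmoid per drug and line, fitted in a mixed model over all curves with the slope shared within a line.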

[2] = compound: CCCS(=O)(=O)Nc1ccc(F)c(C(=O)c2c[nH]c3ncc(Cl)cc23)c1F [PLX4720]; conditions: top dose 10 µM
Procedure: as §1

[3] = compound: CC(C)CC(=O)Nc1n[nH]c2c1CN(C(=O)C1CCN(C)CC1)C2(C)C [PHA-793887]; conditions: top dose 10.24 µM
Procedure: as §1

[4] = compound: C[C@@H](N)c1ccc(C(=O)Nc2ccnc3[nH]ccc23)cc1 [Y-39983]; conditions: top dose 20 µM; top dose inferred
Procedure: as §1

[5] = compound: C/C(=C\c1csc(C)n1)[C@@H]1C[C@@H]2O[C@]2(C)CCC[C@H](C)[C@H](O)[C@@H](C)C(=O)C(C)(C)[C@@H](O)CC(=O)O1 [Epothilone B]; conditions: top dose 0.032 µM; top dose inferred
Procedure: as §1

[6] = compound: CCc1nc(N)nc(N)c1-c1ccc(Cl)cc1 [Pyrimethamine]; conditions: top dose 20 µM; top dose inferred
Procedure: as §1

[7] = compound: CN1CCN(CCOc2cc(OC3CCOCC3)c3c(Nc4c(Cl)ccc5c4OCO5)ncnc3c2)CC1 [AZD-0530]; conditions: top dose 2 µM
Procedure: as §1

[8] = screen: GDSC drug entry 1371, top dose inferred

Cell Line | AUC [1] | IC50 [1] | AUC ([2]; screen: GDSC drug entry 1036) | IC50 ([2]; screen: GDSC drug entry 1036) | AUC [2, 8] | IC50 [2, 8] | AUC [3] | IC50 [3] | AUC [4] | IC50 [4] | AUC [5] | IC50 [5] | AUC [6] | IC50 [6] | AUC [7] | IC50 [7]
Becker (glioma, adherent) | 0.923 | > 20 µM | 0.982 | > 10 µM | 0.915 | > 10 µM | 0.91 | > 10.2 µM | 0.964 | > 20 µM | 0.565 | 0.00308 µM | 0.984 | > 20 µM | 0.886 | > 2 µM
C2BBe1 (large intestine, adherent) | 0.831 | 15.1 µM | 0.95 | > 10 µM | 0.984 | > 10 µM | 0.886 | > 10.2 µM | 0.985 | > 20 µM | 0.716 | 0.00898 µM | 0.981 | > 20 µM | 0.827 | 1.45 µM
CAS-1 (glioma, adherent) | 0.934 | > 20 µM | 0.969 | > 10 µM | 0.972 | > 10 µM | 0.802 | 7.35 µM | 0.979 | > 20 µM | 0.772 | 0.0171 µM | 0.976 | > 20 µM | 0.974 | > 2 µM
CCRF-CEM (lymphoblastic leukaemia, suspension) | 0.565 | 1.82 µM | 0.939 | > 10 µM | 0.981 | > 10 µM | 0.486 | 0.591 µM | 0.799 | 7.87 µM | 0.579 | 0.00317 µM | 0.819 | 9.13 µM | 0.988 | > 2 µM
CHP-126 (neuroblastoma, suspension) | 0.936 | > 20 µM | 0.94 | > 10 µM | 0.981 | > 10 µM | 0.883 | > 10.2 µM | 0.956 | > 20 µM | 0.841 | 0.023 µM | 0.931 | > 20 µM | 0.974 | > 2 µM
CMK (acute myeloid leukaemia, suspension) | 0.184 | 0.174 µM | 0.971 | > 10 µM | 0.964 | > 10 µM | 0.516 | 0.703 µM | 0.868 | 13.7 µM | 0.449 | 0.00149 µM | 0.63 | 2.68 µM | 0.991 | > 2 µM
COLO-320-HSR (large intestine, suspension) | 0.711 | 4.48 µM | 0.989 | > 10 µM | 0.985 | > 10 µM | 0.984 | > 10.2 µM | 0.957 | > 20 µM | 0.631 | 0.00435 µM | 0.666 | 3.38 µM | 0.977 | > 2 µM
COLO-668 (small cell lung carcinoma, adherent) | 0.862 | 17.1 µM | 0.977 | > 10 µM | 0.988 | > 10 µM | 0.977 | > 10.2 µM | 0.949 | > 20 µM | 0.865 | 0.0283 µM | 0.959 | > 20 µM | 0.989 | > 2 µM
COLO-684 (endometrium, suspension) | 0.832 | 15 µM | 0.969 | > 10 µM | 0.983 | > 10 µM | 0.779 | 4.7 µM | 0.935 | > 20 µM | 0.671 | 0.00637 µM | 0.732 | 6.28 µM | 0.982 | > 2 µM
COLO-824 (breast, adherent) | 0.813 | 11.1 µM | 0.987 | > 10 µM | 0.987 | > 10 µM | 0.935 | > 10.2 µM | 0.955 | > 20 µM | 0.83 | 0.0207 µM | 0.982 | > 20 µM | 0.988 | > 2 µM
NCI-H2196 (small cell lung carcinoma, adherent) | 0.898 | > 20 µM |  |  |  |  | 0.899 | > 10.2 µM | 0.986 | > 20 µM | 0.925 | > 0.032 µM | 0.928 | > 20 µM | 0.986 | > 2 µM
SCC-3 (B-cell lymphoma, suspension) | 0.995 | > 20 µM |  |  |  |  | 0.328 | 0.246 µM | 0.983 | > 20 µM | 0.83 | 0.013 µM | 0.525 | 1.44 µM | 0.994 | > 2 µM
SIG-M5 (acute myeloid leukaemia, suspension) | 0.36 | 0.571 µM |  |  |  |  | 0.098 | 0.0555 µM | 0.626 | 2.54 µM | 0.23 | 0.000428 µM | 0.843 | 9.25 µM | 0.994 | > 2 µM
SK-MEL-2 (melanoma, adherent) | 0.96 | > 20 µM |  |  |  |  | 0.795 | 4.95 µM | 0.985 | > 20 µM | 0.669 | 0.00605 µM | 0.92 | > 20 µM | 0.985 | > 2 µM
SU-DHL-1 (anaplastic large cell lymphoma, suspension) | 0.997 | > 20 µM |  |  |  |  | 0.435 | 0.447 µM | 0.997 | > 20 µM | 0.988 | > 0.032 µM | 0.871 | 10.5 µM | 0.994 | > 2 µM
TALL-1 (T-cell lymphoblastic leukaemia, suspension) | 0.88 | 19.1 µM |  |  |  |  | 0.866 | 8.4 µM | 0.941 | > 20 µM | 0.986 | > 0.032 µM | 0.973 | > 20 µM | 0.988 | > 2 µM
TE-441-T (rhabdomyosarcoma, adherent) | 0.837 | 12.7 µM |  |  |  |  | 0.793 | 4.47 µM | 0.977 | > 20 µM | 0.847 | 0.0223 µM | 0.945 | > 20 µM | 0.981 | > 2 µM
UACC-812 (breast, adherent) | 0.977 | > 20 µM |  |  |  |  | 0.99 | > 10.2 µM | 0.991 | > 20 µM | 0.982 | > 0.032 µM | 0.983 | > 20 µM | 0.925 | > 2 µM
